# According to the supplement of paper PMC12632987:
# Over roughly 4,500 sequences, “median log2 fold change of GCK-ALFA target abundance (FLAG IP / Myc IP barcode read proportion)” has its median near 0.078; the lowest 2% begin near -0.6. Some of the results follow.
# B1: GBRAP_125_3034 (protein)
# chain: AAAALAAALATIAAALGLSADDVEELVALARAHGVKGAMIALALAEGNEELADLLAKLSEAEVAAVAAELAAWLAAHPDATPEEVLERWLELAREAVARS
# B2: GBRAP_9_7130 (protein)
# chain: REELVEKLAEVVKEMIEDIKKAVPELTEEQAEKFKKKVEELKKELLADKTATPEEIAKKFLELVKEIEEEVKKIVNEEEKKIVEAIALTAEEEIEEIVEE
# B3: GBRAP_39_5699 (protein)
# chain: EEEEELEIEFSYYEAVGAKYMYEKNISLEEAIKEALKIFEKIEKEHPELKPLMEKLKEILENGDEESRIAAIGIAVSYEEGMPLEEFKEKAEKLIKYVEK
# B4: GBRAP_78_6710 (protein)
# chain: DLEEAIDAAIDALGEAARLSLSLPEDIRTELLDHLIDAQELLWEIEEGEATEEDIKELKEEVKKAKEIAEKNKDKLSPELIKAVKEAAEKTEKAIELLKK
# B5: GBRAP_83_6939 (protein)
# chain: AEKVVVAAPGDKVEEAVEIALDLKEEEGYEVSLEIIFSKEEAEKVIEKIGELIEKGFEGEITLISTDNDEELAEEVKEKIKELAKKYGKNVKVEAYVIEP
# B6: GBRAP_160_4361 (protein)
# chain: SEELKKLAEEIRELREEFEEEAKNLSPEEVRILAIGELSEVAALIFHNEAVSEETEEKIMEIIDEAIEKIKENENASPEEIVEITNEAFEEIIKLVEEEA
# B7: GBRAP_184_5276 (protein)
# chain: MIKHVEIEAETGEEAIEKVKKAAEEAKAAGEKLKLTLVLENASLEEIKELFALLKELKEEGIIEEAVVEIERELSDEEIDEVLKAADEAGVRVVLAISDE
# B8: GBRAP_128_3392 (protein)
# chain: SEEEKVEKAKELIDKIIEADVEEAKKLAKEFMELFGTLSNEDREEVAEYFEEQLPKLTAEKLEVVADVLEEQRPKFDPYGQELVAGMEVEALNEAEEKEE
# B9: GBRAP_128_3490 (protein)
# chain: SMAAAVARTRELMAAIGEADAAEAAALTAEIVALLASADPETREAIVEVIESMLPELSAEKLDVVADTLEAQRPTLDPDTANLVADIQVAALNEALEKEE
# B10: GBRAP_11_2782 (protein)
# chain: KKEKLEEIVKLAKEAIKLAEKLLKEGVDNEELIKKLEKALKELRKLAEENLDEGEKKLVEIAEELWKEFLEDEENKEEYLKQLIAALRVLEGQALLLLEE
# B11: GBRAP_160_4043 (protein)
# chain: KEKYEKLKEEAKKEFKEAEELIEGQTAEEAAVIVSVTVGEIILTAEELGVDDDELEDFIDEKGDEAVEELLANPDLTEEEIKELLKEMEKKVLEAIEKAK
# B12: GBRAP_35_5606 (protein)
# chain: DSLETTVEMLVATIEDLTLAVPEMPVEQLAKIGRSLIKLAREIAEEAKDNLEALKKLKEAVKKLLEAIKKHKGDNPLAQKLAKEVEELLKYLEELIKKVE
# B13: GBRAP_52_6122 (protein)
# chain: MREEAEKLVREVLALIRAGKREEARALIKKFVEAANDEELRILAEAVAELAREAPPEDWDAVWELAEMLAEEMEKAGKDEVLVDDLLARTAAALYERELA
# B14: GBRAP_52_6232 (protein)
# chain: ARAAARAAVERIIAAVRAGKEAEARAIAREIAATWDDAELELLAEALAEATRAAPKEDLPAYERAAEILAEELEAAGRPDVLVDYLEARFAAAAYENEQK
# B15: GBRAP_128_3271 (protein)
# chain: MNPEVVEYAKKLMEEMKNSNEEERRKIAEEIMERILASSLEEAEAMIEVIEELLKELSAEDLEILAEVAREARPKADPEKANLLAGLEVEALNEAEEKEE
# B16: GBRAP_64_6481 (protein)
# chain: SEEIEEEHERLLKKVKELLELFKKELPELAPRAQAILEKVEEAKEKSLEEKLDLVVEVADELLALYNDPRVSEELKDKIAEALDAAFALAALLAEKEEEE
# B17: GBRAP_166_4874 (protein)
# chain: GLEELLEKARKEIRELLKKASEADDEERVELYIEIGEIIEELREAGAPKEAILELVREALKEAKELGLDVRLLAGIIINVTDFDEEEIDELDKIVEEVLK
# B18: GBRAP_128_3206 (protein)
# chain: VSPETVAELRALADEVAATKTDAAIKAFAAAIAEALKAGRLNLDALEEVVTYLGKKLDEETIAKAMDALRAALADVGPEALATALGALGEVLMEKEEEEE
# B19: GBRAP_184_5295 (protein)
# chain: KVVRKVIEAKTAEEAIKKINEVAEKAKEEGVKVELDLFLENVSVEGFKKIAEKLKELKEKGLIKEATVVLLDEKSEEEVDEFVKIADEAGIRLVVALSDE
# B20: GBRAP_166_4896 (protein)
# chain: STADAIAAIEALADDVIARIAELTDEELLDAFVEMAEIVDKAGATPELIAAAAAAFVRVAQAAVAAGRDWARVETLILGAVGYDEKLLDAVEAALAAARA
# B21: GBRAP_160_4064 (protein)
# chain: MSKTEKAIEAIRKEAEEILKLIEGESVEQRATIIDVEFGSTILELYEEGLISEETAEKLLEVVDETVAYLLANPDLSEEEIKELIKEAVEKMEKIIKEDS
# B22: GBRAP_128_3270 (protein)
# chain: ANPEVVAWARAAVEALKTSTPEEARAIAEAFAQWLLESSLEDAEQAVEVVEERLPELTVEQLDILADALRAARPQADPGKANLLAGLEVAALNEAEELEE
# B23: GBRAP_160_4268 (protein)
# chain: SKSLEELAEDVEEDREEILALVDELSAEEIRTLAVTSLGSHLLEAIDEGKISDEAEEELAAIIDKLDADLTAAADASPEERRAIITEHYDKAIELLRKEA
# B24: GBRAP_78_6646 (protein)
# chain: EVEELIDKAIEELDEAAKLAKNLPEEERNELLYYLVEASSYLLLAEENGFDLKELEEAKKHLEKALKLVKKLKSKYAPEIEKELEKALKLLEEAIKLVKE
# B25: GBRAP_128_3568 (protein)
# chain: SVEEKVARAEALLERIRAGDEAERRAAAEEIVALLAAADEESRAAITETILARLPELSVEELDVLADVFRRAMPSADPATAEALAEIEVEALNEAEEKEE
# B26: GBRAP_9_7165 (protein)
# chain: SKEKKEKILEVVKEALEEIIELVPEEVKPLAKKLAEEALKKLEEAVKDENTTVEEFAEKAKEELKKVAEELKKKVDEETAKMIEAVVLTAEEEIEEIVEE
# B27: GBRAP_160_4798 (protein)
# chain: SERVERVARLFREAAREAIEMAKGETHEERVNIFDVELGSAIMEAIEEGLLNDEEEDVALEVRDELIAALRANPDLTEEEIRALAEAAVEDLRRRLEELA
# B28: GBRAP_11_2758 (protein)
# chain: KKEKLKEIAELAEKIAELLEKLLEEGVDNEELLKEAEKAIKELEKLVKEYGDESLKKLVEILKEEWEESLEDEENKEQYVKEALATARVIAGDALLEYEE
# B29: GBRAP_74_6511 (protein)
# chain: MEELLKELKKAAEEKDVKKLVELAKKIAKEGNKEAIEKAAEIVIEFVEKNLDELTPEELEALADALAELADKLMELGGDSEVINRVAKAAVELQKKLEAL
# Molecular target: GABARAP, O95166
# Experiment: median log2 fold change of GCK-ALFA target abundance (FLAG IP / Myc IP barcode read proportion) (log2 ratio); each designed protein is fused to an ALFA-tag nanobody in HEK293 cells to bring the named protein to FLAG-tagged glucokinase (GCK); Myc marks an untargeted standard; higher = target protein stabilised (more abundant)
# Conditions: target protein: 3xFLAG-MCP-GCK-ALFA reporter; HEK293 landing pad (RPLP)
# Procedure, shortened: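 The readout is target abundance, the per-binder median log2 ratio of FLAG to Myc barcode read proportions. It came from HEK293 landing-pad cells carrying a recombined ALFA-nanobody-fused binder library, induced with 2 μg mL^−1 doxycycline and transfected with a plasmid for a FLAG-tagged target and a Myc-tagged standard. After 48 h, lysates were immunoprecipitated with anti-FLAG and anti-Myc, and circular RNA barcodes were reverse transcribed, amplified and sequenced. Each barcode needed a proportion of at least 10^−7 in both replicates and each binder at least 3 barcodes per replicate, a pseudocount of 10^−6 was added, and the replicates were pooled.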
# Sequence of GABARAP, O95166 (O95166 whole entry, the tested form may be a part): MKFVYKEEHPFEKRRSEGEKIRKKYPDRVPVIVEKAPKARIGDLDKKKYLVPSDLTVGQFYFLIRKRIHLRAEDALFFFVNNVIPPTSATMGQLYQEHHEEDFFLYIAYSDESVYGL
row,Binder,median log2 fold change
1,B1,-0.0489
2,B2,0.208
3,B3,0.297
4,B4,-0.0699
5,B5,-0.184
6,B6,-0.212
7,B7,0.223
8,B8,-0.136
9,B9,0.168
10,B10,0.3
11,B11,-0.193
12,B12,-0.544
13,B13,0.0507
14,B14,0.0142
15,B15,0.243
16,B16,-0.106
17,B17,0.0131
18,B18,0.228
19,B19,-0.0918
20,B20,0.185
21,B21,-0.337
22,B22,0.0153
23,B23,0.0659
24,B24,-0.0456
25,B25,0.215
26,B26,0.369
27,B27,0.104
28,B28,0.149
29,B29,0.302
